Results are given in words; binding and its absence hold for the method and conditions named. Binding seen in cells or lysates may run through a third protein. Some results given as binding are weak or reduced against the parent protein; the word gives no strength. For some of these results: Tags and fused reporters may be left off the sequences shown.
T1: Strep-HA-tagged TBK1 (NIH3T3) (murine) (UniProt Q9WUN2)
T1 sequence: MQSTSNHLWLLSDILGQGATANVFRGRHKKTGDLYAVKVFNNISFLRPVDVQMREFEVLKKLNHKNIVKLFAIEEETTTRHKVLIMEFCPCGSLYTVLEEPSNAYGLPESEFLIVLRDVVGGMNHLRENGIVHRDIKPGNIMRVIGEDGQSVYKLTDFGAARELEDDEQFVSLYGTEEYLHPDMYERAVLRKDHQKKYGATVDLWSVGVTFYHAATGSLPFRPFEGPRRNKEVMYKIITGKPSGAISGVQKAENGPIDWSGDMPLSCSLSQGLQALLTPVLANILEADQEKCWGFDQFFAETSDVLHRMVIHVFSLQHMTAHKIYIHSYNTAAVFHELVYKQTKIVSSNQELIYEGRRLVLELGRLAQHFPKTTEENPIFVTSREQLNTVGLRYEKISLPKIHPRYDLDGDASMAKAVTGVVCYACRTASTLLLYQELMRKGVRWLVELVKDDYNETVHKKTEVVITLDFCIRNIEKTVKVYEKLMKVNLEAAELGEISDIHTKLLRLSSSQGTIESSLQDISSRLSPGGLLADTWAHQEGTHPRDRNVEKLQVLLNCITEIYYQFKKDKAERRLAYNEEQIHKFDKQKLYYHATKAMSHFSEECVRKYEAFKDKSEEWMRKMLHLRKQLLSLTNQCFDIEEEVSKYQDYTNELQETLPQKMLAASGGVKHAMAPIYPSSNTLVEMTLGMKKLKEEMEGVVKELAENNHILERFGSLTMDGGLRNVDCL

The chains behind the UniProt entries cited, without tags or fusion partners.
UniProt A2A9T0: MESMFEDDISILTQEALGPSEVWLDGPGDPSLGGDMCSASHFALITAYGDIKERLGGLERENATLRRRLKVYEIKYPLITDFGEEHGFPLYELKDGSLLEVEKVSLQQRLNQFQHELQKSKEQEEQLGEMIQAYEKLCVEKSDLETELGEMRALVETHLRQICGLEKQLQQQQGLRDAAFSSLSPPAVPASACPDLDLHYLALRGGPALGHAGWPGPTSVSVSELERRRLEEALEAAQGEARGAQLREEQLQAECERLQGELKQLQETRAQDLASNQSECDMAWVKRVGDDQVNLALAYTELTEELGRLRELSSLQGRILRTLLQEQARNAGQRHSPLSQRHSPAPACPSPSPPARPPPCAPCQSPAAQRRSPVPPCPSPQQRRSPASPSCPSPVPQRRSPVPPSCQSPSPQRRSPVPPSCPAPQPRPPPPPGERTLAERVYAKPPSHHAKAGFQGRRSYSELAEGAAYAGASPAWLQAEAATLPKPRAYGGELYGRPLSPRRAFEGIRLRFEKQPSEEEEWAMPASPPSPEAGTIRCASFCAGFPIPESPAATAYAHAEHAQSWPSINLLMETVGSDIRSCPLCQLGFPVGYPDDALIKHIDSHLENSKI
UniProt Q9QYP6: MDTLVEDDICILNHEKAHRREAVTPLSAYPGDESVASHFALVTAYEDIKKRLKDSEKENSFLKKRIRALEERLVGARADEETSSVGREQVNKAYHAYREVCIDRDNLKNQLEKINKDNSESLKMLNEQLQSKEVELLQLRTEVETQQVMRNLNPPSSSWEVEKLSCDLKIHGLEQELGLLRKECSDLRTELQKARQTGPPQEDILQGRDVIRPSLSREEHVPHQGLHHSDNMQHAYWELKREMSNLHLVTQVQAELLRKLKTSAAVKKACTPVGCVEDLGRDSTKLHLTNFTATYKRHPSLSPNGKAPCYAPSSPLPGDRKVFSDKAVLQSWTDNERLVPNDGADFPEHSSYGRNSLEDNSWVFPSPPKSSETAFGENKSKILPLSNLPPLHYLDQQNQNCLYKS

T2: Strep-HA fusion of TBK1 wt (reconstituted MEFs) (murine) (UniProt Q9WUN2)
T2 sequence: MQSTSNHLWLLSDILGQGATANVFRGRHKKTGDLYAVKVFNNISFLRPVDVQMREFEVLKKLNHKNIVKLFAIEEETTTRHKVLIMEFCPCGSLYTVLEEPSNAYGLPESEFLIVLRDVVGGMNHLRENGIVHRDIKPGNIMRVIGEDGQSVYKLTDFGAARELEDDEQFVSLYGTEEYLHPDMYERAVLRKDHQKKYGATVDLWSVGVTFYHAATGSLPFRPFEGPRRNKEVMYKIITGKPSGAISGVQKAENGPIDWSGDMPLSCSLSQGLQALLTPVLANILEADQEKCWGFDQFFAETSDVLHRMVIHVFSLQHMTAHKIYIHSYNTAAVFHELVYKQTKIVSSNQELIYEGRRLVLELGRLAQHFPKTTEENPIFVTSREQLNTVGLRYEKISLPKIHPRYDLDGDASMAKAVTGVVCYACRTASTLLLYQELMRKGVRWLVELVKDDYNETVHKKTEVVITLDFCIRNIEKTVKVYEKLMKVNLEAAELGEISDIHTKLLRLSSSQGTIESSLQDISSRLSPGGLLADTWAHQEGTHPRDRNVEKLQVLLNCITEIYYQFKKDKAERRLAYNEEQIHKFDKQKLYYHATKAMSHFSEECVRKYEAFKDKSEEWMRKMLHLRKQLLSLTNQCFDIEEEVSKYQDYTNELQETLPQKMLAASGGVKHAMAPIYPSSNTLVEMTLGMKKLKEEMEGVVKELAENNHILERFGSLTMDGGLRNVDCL

T3: Strep-HA fusion of TBK1 L693A (reconstituted MEFs) (murine) (UniProt Q9WUN2)
T3 sequence: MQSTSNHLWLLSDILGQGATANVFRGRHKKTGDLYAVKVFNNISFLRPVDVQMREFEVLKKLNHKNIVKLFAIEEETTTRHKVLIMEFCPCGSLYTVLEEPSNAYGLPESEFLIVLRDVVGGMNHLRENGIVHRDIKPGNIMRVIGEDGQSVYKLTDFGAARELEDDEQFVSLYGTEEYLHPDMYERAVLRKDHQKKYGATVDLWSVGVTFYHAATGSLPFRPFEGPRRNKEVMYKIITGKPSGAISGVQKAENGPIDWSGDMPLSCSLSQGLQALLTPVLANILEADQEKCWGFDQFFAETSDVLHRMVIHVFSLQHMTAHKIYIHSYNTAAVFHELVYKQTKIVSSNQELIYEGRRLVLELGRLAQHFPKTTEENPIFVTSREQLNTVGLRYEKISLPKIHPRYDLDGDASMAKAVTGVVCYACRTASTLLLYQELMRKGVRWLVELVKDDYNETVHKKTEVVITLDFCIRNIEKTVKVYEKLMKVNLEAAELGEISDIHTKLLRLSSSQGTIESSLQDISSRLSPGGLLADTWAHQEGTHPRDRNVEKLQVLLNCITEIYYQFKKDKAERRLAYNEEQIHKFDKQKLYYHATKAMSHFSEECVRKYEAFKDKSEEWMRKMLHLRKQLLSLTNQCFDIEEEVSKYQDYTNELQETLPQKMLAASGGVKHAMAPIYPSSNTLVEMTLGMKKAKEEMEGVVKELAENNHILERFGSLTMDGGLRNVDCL

T4: Strep-HA fusion of TBK1 E706K (reconstituted MEFs) (murine) (UniProt Q9WUN2)
T4 sequence: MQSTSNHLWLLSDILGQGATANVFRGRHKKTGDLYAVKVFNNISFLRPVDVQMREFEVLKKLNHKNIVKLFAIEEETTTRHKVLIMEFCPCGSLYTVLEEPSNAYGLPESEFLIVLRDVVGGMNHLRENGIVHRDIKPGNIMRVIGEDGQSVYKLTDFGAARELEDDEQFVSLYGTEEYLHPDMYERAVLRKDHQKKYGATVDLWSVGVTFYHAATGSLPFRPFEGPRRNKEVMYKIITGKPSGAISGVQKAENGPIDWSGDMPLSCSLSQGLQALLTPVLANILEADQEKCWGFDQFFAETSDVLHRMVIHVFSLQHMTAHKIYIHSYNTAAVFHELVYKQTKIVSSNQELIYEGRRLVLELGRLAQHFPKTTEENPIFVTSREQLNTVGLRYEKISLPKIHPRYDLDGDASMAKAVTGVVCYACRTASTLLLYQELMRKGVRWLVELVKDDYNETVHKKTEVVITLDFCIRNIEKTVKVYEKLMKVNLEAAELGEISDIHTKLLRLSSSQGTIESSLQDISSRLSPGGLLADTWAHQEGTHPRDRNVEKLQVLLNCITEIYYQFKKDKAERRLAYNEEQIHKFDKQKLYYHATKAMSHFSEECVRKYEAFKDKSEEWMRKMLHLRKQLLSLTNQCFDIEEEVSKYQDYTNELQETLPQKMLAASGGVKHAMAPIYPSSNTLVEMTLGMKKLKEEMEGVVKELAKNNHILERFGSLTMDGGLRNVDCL

T5: Strep-HA fusion of TBK1 K694E (reconstituted MEFs) (murine) (UniProt Q9WUN2)
T5 sequence: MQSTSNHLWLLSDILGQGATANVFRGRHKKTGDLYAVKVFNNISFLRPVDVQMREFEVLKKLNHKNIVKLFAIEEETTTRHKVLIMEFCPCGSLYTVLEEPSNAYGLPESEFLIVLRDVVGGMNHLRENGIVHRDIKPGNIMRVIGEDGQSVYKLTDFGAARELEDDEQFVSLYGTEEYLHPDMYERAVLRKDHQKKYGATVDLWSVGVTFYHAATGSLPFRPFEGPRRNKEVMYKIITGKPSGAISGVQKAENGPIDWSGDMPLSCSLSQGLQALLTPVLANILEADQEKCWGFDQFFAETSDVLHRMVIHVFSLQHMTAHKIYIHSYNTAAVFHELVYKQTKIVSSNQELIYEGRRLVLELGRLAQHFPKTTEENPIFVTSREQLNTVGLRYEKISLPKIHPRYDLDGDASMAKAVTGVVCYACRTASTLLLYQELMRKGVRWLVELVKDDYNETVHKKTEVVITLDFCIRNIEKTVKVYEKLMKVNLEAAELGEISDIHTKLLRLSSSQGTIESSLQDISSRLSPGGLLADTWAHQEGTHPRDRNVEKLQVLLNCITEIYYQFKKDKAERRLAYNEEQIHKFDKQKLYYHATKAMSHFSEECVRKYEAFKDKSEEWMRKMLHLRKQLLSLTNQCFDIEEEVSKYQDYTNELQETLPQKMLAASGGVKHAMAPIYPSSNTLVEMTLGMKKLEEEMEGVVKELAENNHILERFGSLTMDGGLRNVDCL


Assays:
[1] = target: Strep-HA-tagged Sintbad (NIH3T3) (UniProt A2A9T0); test: co-IP; NIH3T3 cells stably expressing Strep-HA-tagged baits; anti-HA agarose; immunoblotting with anti-HA.11, anti-TBK1, anti-TANK
[2] = target: T1, Strep-HA-tagged TBK1 (NIH3T3) (murine); test: as above
[3] = target: Strep-HA-tagged NAP1 (NIH3T3) (not stated (human or mouse cDNA cloned)) (UniProt Q9QYP6); test: as above
[4] = target: T2, Strep-HA fusion of TBK1 wt (reconstituted MEFs) (murine); test: co-IP; TBK1/IKK-i-deficient MEFs reconstituted with Strep-HA fusions of TBK1 wt or mutants; anti-HA agarose; immunoblotting with anti-HA.11, anti-TBK1, anti-TANK
[5] = target: T3, Strep-HA fusion of TBK1 L693A (reconstituted MEFs) (murine); test: as above
[6] = target: T4, Strep-HA fusion of TBK1 E706K (reconstituted MEFs) (murine); test: as above
[7] = target: T5, Strep-HA fusion of TBK1 K694E (reconstituted MEFs) (murine); test: as above

binding [1]	binding [2]	binding [3]	binding [4]	binding [5]	binding [6]	binding [7]	Binder
no binding	binds	no binding					endogenous TANK (NIH3T3) (protein, UniProt P70347 1-448) MSLKRHSLRRNACHLETRAGIPTILYSDATGQRGMDKNIGEQLNRAYEAFRQACMDRDSAVRELQQKQTENYEQRIREQQEQLSFQQNLIDRLKSQLLLVDSSRDNSYGYVPLLEDSDRRKNNLTLDEPHDKVKLGTLRDKQSKVRRQEVSSGKESAKGLNIPLHHERDNIEKTFWDLKEEFHRICLLAKAQKDHLSKLNIPDIATDTQCSVPIQCTDKTEKQEALFKPQAKDDINRGMSCVTAVTPRGLGRDEEDTSFESLSKFNVKFPPMDNDSIFLHSTPEAPSILAPATPETVCQDRFNMEVRDNPGNFVKTEETLFEIQGIDPITSAIQNLKTTDKTNPSNLRATCLPAGDHNVFYVNTFPLQDPPDAPFPSLDSPGKAVRGPQQPFWKPFLNQDTDLVVPSDSDSELLKPLVCEFCQELFPPSITSRGDFLRHLNTHFNGET
			binds	no binding	binds	no binding	endogenous TANK (MEFs) (protein, UniProt P70347 1-448) MSLKRHSLRRNACHLETRAGIPTILYSDATGQRGMDKNIGEQLNRAYEAFRQACMDRDSAVRELQQKQTENYEQRIREQQEQLSFQQNLIDRLKSQLLLVDSSRDNSYGYVPLLEDSDRRKNNLTLDEPHDKVKLGTLRDKQSKVRRQEVSSGKESAKGLNIPLHHERDNIEKTFWDLKEEFHRICLLAKAQKDHLSKLNIPDIATDTQCSVPIQCTDKTEKQEALFKPQAKDDINRGMSCVTAVTPRGLGRDEEDTSFESLSKFNVKFPPMDNDSIFLHSTPEAPSILAPATPETVCQDRFNMEVRDNPGNFVKTEETLFEIQGIDPITSAIQNLKTTDKTNPSNLRATCLPAGDHNVFYVNTFPLQDPPDAPFPSLDSPGKAVRGPQQPFWKPFLNQDTDLVVPSDSDSELLKPLVCEFCQELFPPSITSRGDFLRHLNTHFNGET

Source: publication PMC3169550
